This is an account of results in patent publication US10787442B2, “Modulators of indoleamine 2,3-dioxygenase” (GLAXOSMITHKLINE INTELLECTUAL PROPERTY DEVELOPMENT LIMITED, priority 2016, dated 2020).

In the assay the target is indoleamine 2, 3-dioxygenase (IDO1) (Homo sapiens, UniProt P14902). As to the kind of experiment: IDO1 PBMC RapidFire MS Assay (kynurenine by mass spectrometry). It counts as cell-based. To be noted: human PBMC stimulated with IFN-γ and LPS, 2 days; recorded as pIC50; read-out: IDO1 PBMC PXC50 (converted).
Sequence of UniProt P14902 (P14902 whole entry): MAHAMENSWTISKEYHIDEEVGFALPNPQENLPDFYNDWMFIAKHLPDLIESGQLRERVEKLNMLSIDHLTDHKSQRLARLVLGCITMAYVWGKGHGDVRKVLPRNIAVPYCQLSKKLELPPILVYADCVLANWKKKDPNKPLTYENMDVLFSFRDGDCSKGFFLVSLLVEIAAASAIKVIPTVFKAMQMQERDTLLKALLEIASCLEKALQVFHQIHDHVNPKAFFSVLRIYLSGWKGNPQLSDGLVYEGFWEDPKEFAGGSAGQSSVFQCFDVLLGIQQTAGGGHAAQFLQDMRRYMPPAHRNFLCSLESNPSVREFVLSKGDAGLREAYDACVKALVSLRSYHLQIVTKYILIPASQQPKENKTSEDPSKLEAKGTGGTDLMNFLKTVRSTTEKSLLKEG

Bounds are passed on as bounds.

For `CC(C)CN(c1ncc([C@H](C)CC(=O)O)cc1Nc1ccc(C#N)nc1)C1CCOCC1` [Example 62, (3R)-3-{5-[(6-cyanopyridin-3-yl)amino]-6-[(2-methylpropyl)(oxan-4-yl)amino]pyridin-3-yl}butanoic acid], the IC50 is 15.8 nM.
For `CC(C)CN(c1ncc([C@H](C)CC(=O)O)cc1Nc1nnc(C(N)=O)s1)C1CCCCC1` [Example 63, (3R)-3-{5-[(5-carbamoyl-1,3,4-thiadiazol-2-yl)amino]-6-[cyclohexyl(2-methylpropyl)amino]pyridin-3-yl}butanoic acid] the value was 12.6 nM.
As to `CNC(=O)c1nnc(Nc2cc([C@H](C)CC(=O)O)cnc2N(CC(C)C)C2CCCCC2)s1` [Example 64, (3R)-3-{6-[cyclohexyl(2-methylpropyl)amino]-5-{[5-(methylcarbamoyl)-1,3,4-thiadiazol-2-yl]amino}pyridin-3-yl}butanoic acid], the IC50 is 25.1 nM.
The figure for `CC(C)CN(c1ncc([C@H](C)CC(=O)O)cc1Nc1cnc(C#N)nc1)C1CCOCC1` [Example 65, (3R)-3-{5-[(2-cyanopyrimidin-5-yl)amino]-6-[(2-methylpropyl)(oxan-4-yl)amino]pyridin-3-yl}butanoic acid] is 25.1 nM; for `CC(C)CN(c1ncc([C@H](C)CC(=O)O)cc1Nc1ccc(C(F)(F)F)nn1)C1CCOCC1` [Example 66, (3R)-3-{6-[(2-methylpropyl)(oxan-4-yl)amino]-5-{[6-(trifluoromethyl)pyridazin-3-yl]amino}pyridin-3-yl}butanoic acid] it is 12.6 nM.
With `CC(C)CN(c1ncc([C@H](C)CC(=O)O)cc1Nc1cnc(C#N)cn1)C1CCOCC1` [Example 67, (3R)-3-{5-[(5-cyanopyrazin-2-yl)amino]-6-[(2-methylpropyl)(oxan-4-yl)amino]pyridin-3-yl}butanoic acid], the IC50 is 63.1 nM.
For `CC(C)CN(c1ncc([C@H](C)CC(=O)O)cc1Nc1ccc(Cl)c(Cl)n1)C1CCOCC1` [Example 68, (3R)-3-{5-[(5,6-dichloropyridin-2-yl)amino]-6-[(2-methylpropyl)(oxan-4-yl)amino]pyridin-3-yl}butanoic acid], the IC50 is 31.6 nM.
The figure for `Cc1nc(Nc2cc([C@H](C)CC(=O)O)cnc2N(CC(C)C)C2CCOCC2)ccc1Cl` [Example 69, (3R)-3-{5-[(5-chloro-6-methylpyridin-2-yl)amino]-6-[(2-methylpropyl)(oxan-4-yl)amino]pyridin-3-yl}butanoic acid] is 251 nM; for `CC(C)CN(c1ncc([C@H](C)CC(=O)O)cc1Nc1ccc(Cl)c(C#N)n1)C1CCOCC1` [Example 70, (3R)-3-{5-[(5-chloro-6-cyanopyridin-2-yl)amino]-6-[(2-methylpropyl)(oxan-4-yl)amino]pyridin-3-yl}butanoic acid] it is 158 nM.
`CC(C)CN(CC(F)F)c1ncc([C@H](C)CC(=O)O)cc1Nc1ccc(Cl)cn1` [Example 71, (3R)-3-{5-[(5-chloropyridin-2-yl)amino]-6-[(2,2-difluoroethyl)(2-methylpropyl)amino]pyridin-3-yl}butanoic acid]: the IC50 is 20 nM.
The figure for `CC(C)CN(CC(C)C)c1nnc(C(C)CC(=O)O)cc1Nc1nc(C(F)(F)F)ns1` (stereo not shown) [Example 72, 3-{6-[bis(2-methylpropyl)amino]-5-{[3-(trifluoromethyl)-1,2,4-thiadiazol-5-yl]amino}pyridazin-3-yl}butanoic acid] is over 10000 nM.
For `CC(C)CN(c1ncc([C@H](C)CC(=O)O)cc1Nc1ccc(C#N)nn1)C1CCOCC1` [Example 74, (3R)-3-{5-[(6-cyanopyridazin-3-yl)amino]-6-[(2-methylpropyl)(oxan-4-yl)amino]pyridin-3-yl}butanoic acid] the value was 126 nM.
The figure for `CC(C)CN(c1ncc([C@H](C)CC(=O)O)cc1Nc1ccc(Cl)cn1)C1CC(F)(F)C1` [Example 75, (3R)-3-{5-[(5-chloropyridin-2-yl)amino]-6-[(3,3-difluorocyclobutyl)(2-methylpropyl)amino]pyridin-3-yl}butanoic acid] is 39.8 nM.
Turning to `CC(C)CN(CCC(F)(F)F)c1ncc([C@H](C)CC(=O)O)cc1Nc1ccc(Cl)cn1` [Example 76, (3R)-3-{5-[(5-chloropyridin-2-yl)amino]-6-[(2-methylpropyl)(3,3,3-trifluoropropyl)amino]pyridin-3-yl}butanoic acid], the IC50 is 63.1 nM.
On to `CC(C)CN(c1ncc([C@H](C)CC(=O)O)cc1Nc1cnc(Cl)cn1)C1CCOCC1` [Example 77, (3R)-3-{5-[(5-chloropyrazin-2-yl)amino]-6-[(2-methylpropyl)(oxan-4-yl)amino]pyridin-3-yl}butanoic acid], for which the IC50 is 20 nM.
For `CC(C)CN(c1ncc([C@H](C)CC(=O)NO)cc1Nc1ccc(Cl)cn1)C1CCOCC1` [Example 78, (3R)-3-{5-[(5-chloropyridin-2-yl)amino]-6-[(2-methylpropyl)(oxan-4-yl)amino]pyridin-3-yl}-N-hydroxybutanamide], the IC50 was 158 nM.
As for `CC(C)CN(c1ncc([C@H](C)CC(=O)NS(C)(=O)=O)cc1Nc1ccc(Cl)cn1)C1CCOCC1` [Example 79, (3R)-3-{5-[(5-chloropyridin-2-yl)amino]-6-[(2-methylpropyl)(oxan-4-yl)amino]pyridin-3-yl}-N-methanesulfonylbutanamide], the IC50 was 25.1 nM.
For `CC(C)CN(c1ncc([C@H](C)CC(=O)NS(=O)(=O)N(C)C)cc1Nc1ccc(Cl)cn1)C1CCOCC1` [Example 80, (3R)-3-{5-[(5-chloropyridin-2-yl)amino]-6-[(2-methylpropyl)(oxan-4-yl)amino]pyridin-3-yl}-N-(dimethylsulfamoyl)butanamide] the value was 12.6 nM; for `CC(C)CN(c1ncc([C@H](C)CC(=O)O)cc1Nc1nc(Cl)ns1)C1CC(F)(F)C1` [Example 81], 20 nM; for `CC(C)CN(c1cnc([C@H](C)CC(=O)O)cc1Nc1ccc(Cl)cn1)C1CCOCC1` [Example 82, (3R)-3-{4-[(5-chloropyridin-2-yl)amino]-5-[(2-methylpropyl)(oxan-4-yl)amino]pyridin-2-yl}butanoic acid], 7.94 nM.
For `C[C@H](CC(=O)O)c1cnc(N(CCCCCN)C2CCOCC2)c(Nc2ccc(Cl)cn2)c1` [Example 83, (3R)-3-{6-[(5-aminopentyl)(oxan-4-yl)amino]-5-[(5-chloropyridin-2-yl)amino]pyridin-3-yl}butanoic acid], the IC50 was over 10000 nM.
As for `C[C@H](CC(=O)O)c1cnc(N(CCCCCNC(=O)OC2CC/C=C/CCC2)C2CCOCC2)c(Nc2ccc(Cl)cn2)c1` (stereo partly drawn) [Example 84, (3R)-3-{5-[(5-chloropyridin-2-yl)amino]-6-{[5-({[(4E)-cyclooct-4-en-1-yloxy]carbonyl}amino)pentyl](oxan-4-yl)amino}pyridin-3-yl}butanoic acid], the IC50 is 126 nM.
